Screen size: about 310,000 compounds; about 2,200 (0.71%) showed an effect of 50% or more. The effect is printed as a negative number. The list shows a part of the results.
The compounds below were run against human ether-à-go-go-related gene (hERG) potassium channel (human, UniProt Q12809) (assay: primary screen, population patch clamp on CHO cells stably expressing hERG).
human ether-à-go-go-related gene (hERG) potassium channel, sequence (Q12809 whole entry, looked up): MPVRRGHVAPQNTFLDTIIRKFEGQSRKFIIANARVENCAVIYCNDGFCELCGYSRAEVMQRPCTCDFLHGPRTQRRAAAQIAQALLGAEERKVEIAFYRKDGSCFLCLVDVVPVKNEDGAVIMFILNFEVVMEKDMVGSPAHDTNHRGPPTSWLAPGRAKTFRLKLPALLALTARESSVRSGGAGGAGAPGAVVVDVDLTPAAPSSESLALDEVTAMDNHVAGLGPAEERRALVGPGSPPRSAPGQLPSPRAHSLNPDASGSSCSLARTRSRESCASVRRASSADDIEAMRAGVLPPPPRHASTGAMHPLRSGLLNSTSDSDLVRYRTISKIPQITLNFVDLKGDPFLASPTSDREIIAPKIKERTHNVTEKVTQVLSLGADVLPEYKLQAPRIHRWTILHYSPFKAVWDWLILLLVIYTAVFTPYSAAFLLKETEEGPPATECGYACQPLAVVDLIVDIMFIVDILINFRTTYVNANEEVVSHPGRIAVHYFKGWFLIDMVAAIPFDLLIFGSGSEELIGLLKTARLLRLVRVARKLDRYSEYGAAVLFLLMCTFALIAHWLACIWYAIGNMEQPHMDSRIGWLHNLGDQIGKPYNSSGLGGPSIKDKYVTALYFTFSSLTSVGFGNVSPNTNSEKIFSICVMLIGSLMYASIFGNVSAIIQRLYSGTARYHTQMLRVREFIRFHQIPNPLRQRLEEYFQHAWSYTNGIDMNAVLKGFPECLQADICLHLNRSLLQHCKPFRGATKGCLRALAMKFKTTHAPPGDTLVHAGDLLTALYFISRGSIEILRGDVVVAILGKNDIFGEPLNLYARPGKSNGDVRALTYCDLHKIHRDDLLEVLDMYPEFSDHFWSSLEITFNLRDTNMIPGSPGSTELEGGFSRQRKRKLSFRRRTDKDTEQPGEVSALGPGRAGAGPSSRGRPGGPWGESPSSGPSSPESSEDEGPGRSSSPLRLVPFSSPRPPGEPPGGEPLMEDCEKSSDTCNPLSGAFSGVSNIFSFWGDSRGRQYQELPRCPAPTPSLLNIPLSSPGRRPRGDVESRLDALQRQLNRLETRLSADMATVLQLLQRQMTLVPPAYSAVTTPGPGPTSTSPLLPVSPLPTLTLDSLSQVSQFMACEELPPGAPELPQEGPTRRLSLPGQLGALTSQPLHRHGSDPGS

Row | Structure (SMILES) | hERG current change (%, negative = inhibition) at 1uM
1 | CCOC(=O)c1ccc2c(c1)n(CCO)c(C)[n+]2CC.[I-] | 6.24%
2 | Cc1ccc(CSCC(=O)N(C)CC(=O)Nc2ccc(C)cc2)cc1 | 20.9%
3 | COc1ccccc1OCCn1c(SCC(=O)O)nc2ccccc21 | 8.81%
4 | CC(OC(=O)C1=COCCO1)C(=O)NC1CCCCC1C (centres unmarked) | 14.2%
5 | COc1cccc(NC(=O)c2cccc(C(=O)Nc3cccc(OC)c3)n2)c1 | 17.5%
6 | N#Cc1c(NC(=O)CSc2ncn(-c3ccccc3)n2)sc2c1CCCC2 | 5.4%
7 | CCC1=NN(C(=O)c2ccc(Cl)cc2)C(O)(c2ccccc2)C1 (centres unmarked) | 12.8%
8 | CC(=O)N(C(C)=O)c1nc(-c2ccccc2)cn1/N=C/c1ccccc1 | 13.2%
9 | CCOC(=O)c1cnc2c(OC)cccc2c1N1CCN(c2ccccc2OC)CC1 | -0.178%
10 | Cc1cc(C)c2nc(N3CCCC(C(=O)N4CCC(C(N)=O)CC4)C3)sc2c1 (centres unmarked) | 1.7%
11 | O=C(NC(=S)N1CCN(C/C=C/c2ccccc2)CC1)c1ccc(F)cc1 | 3.26%
12 | Cc1ccc(CSc2nnc([C@@H]3CCCN3)o2)cc1.Cl | -0.955%
13 | COc1ccc(C)cc1NC(=O)c1ccc(NS(=O)(=O)c2cccs2)cc1 | 19.5%
14 | CCOC(=O)CCCCC(=O)c1[nH]c(=O)[nH]c1CSc1nc(C)cc(=O)[nH]1 | 19.1%
15 | CCOc1ccc(C(=O)CCN2CCOCC2)cc1.Cl | 10.9%
16 | Cc1[nH]c2ccccc2c1/C=N/NC(=O)CNC(=O)c1cccs1 | 7.61%
17 | CN1C(=O)[C@H]2[C@@H](C3CC3)N3C(=O)CN(CCO)C(=O)[C@@]3(Cc3ccccc3)[C@H]2C1=O | 12.3%
18 | CCOC(=O)N1CCC(n2c(=S)[nH]c3cc(OCC)c(OCC)cc3c2=O)CC1 | 2.34%
19 | CCOC(=O)C1CCN(C(=O)Nc2ccc3oc(C)nc3c2)CC1 | 12.9%
20 | O=C(CN1C(=O)NC2(CCCC2)C1=O)Nc1ccc(Cl)cc1C(F)(F)F | 11.3%
21 | Cc1ccc(C(=O)CSc2nc3ccccc3c(=O)n2N)o1 | 5.69%
22 | COc1ccc(Cn2c(C)cc3c(c2=O)C(c2cccs2)C(C#N)=C(N)O3)cc1OC (centres unmarked) | 12.5%
23 | COc1ccc(C2N(C(C)=O)CCN2S(=O)(=O)c2ccc(C)cc2)cc1 (centres unmarked) | 10.8%

Row | Structure (SMILES) | hERG current change (%, negative = inhibition) at 1uM
24 | COc1ccc(CCCC(=O)NCCc2ccccc2)cc1 | 15.3%
25 | COc1ccc(CC2(CO)CCN(Cc3nc(C(C)C)cs3)CC2)cc1 | -1.4%
26 | O=C1NC2(CCCCC2)N=C1c1ccc(Br)cc1 | 12.1%
27 | CCN(CC(=O)NC1CCS(=O)(=O)C1)S(=O)(=O)c1cc([N+](=O)[O-])ccc1C (centres unmarked) | -2.91%
28 | COc1ccc(NC(=O)c2nc3ccccc3s2)cc1 | -0.0959%
29 | CC(=O)N/C(=N\c1nc(C)cc(C)n1)Nc1ccc(Cl)cc1Cl | 9.89%
30 | O=C1NC(c2ccccc2Br)=N/C1=C\c1ccco1 | 15%
31 | COc1ccc2c(C#N)c3ccccn3c2c1 | 4.51%
32 | C=COCCNC(=S)N1CCOCCOCCN(C(=S)NCCOC=C)CCOCC1 | 24.3%
33 | CC1CCN(C(=O)CN(CCc2ccccc2)S(C)(=O)=O)CC1 | 9.89%
34 | O=c1[nH]c2ccc(NC(=S)Nc3ccc(Cl)cc3)cc2[nH]1 | 15.2%
35 | O=C(CCc1ccccc1)Nc1ccccc1C(=O)N1CCOCC1 | 10%
36 | O=C(NC(=S)NCc1ccccc1)C1CC1 | 4.16%
37 | COc1ccc(C2N(c3cccc(Cl)c3)C(=O)C3CCCN32)cc1 (centres unmarked) | 5.67%
38 | CC(C)CNc1ncnc2c1cnn2Cc1ccc(Cl)cc1 | 18.4%
39 | CCOc1ccc(/C=C2\SC(=S)N(CCC(=O)Nc3cccc(C(=O)O)c3)C2=O)cc1 | 5.05%
40 | CCN(CC(=O)NC(C)(C)C)C(=O)COc1c(Cl)cc(Cl)c2ccc(C)nc12 | -8.13%
41 | CC(C)c1ccc(NC(=O)CCNC(=O)Cn2ccc3ccccc3c2=O)cc1 | 9.37%
42 | COc1ccccc1C(=O)NCCC(=O)Nc1ccc(S(=O)(=O)N2CCCC(C)C2)cc1 (centres unmarked) | 9.04%
43 | Cc1cc2ccccn2c1C(=O)Nc1ccccc1 | 1.28%
44 | CCOc1ccccc1NC(=O)C1CCCN(S(=O)(=O)c2ccccc2)C1 (centres unmarked) | -10.5%
45 | N/C(Cc1ccc(Cl)cc1)=N\OC(=O)Cc1ccc([N+](=O)[O-])cc1 | 9.45%
46 | Cc1cc(O)cc(O)c1C(=O)Cc1ccccc1 | 3.44%

Row | Structure (SMILES) | hERG current change (%, negative = inhibition) at 1uM
47 | COc1ccc([C@H]2/C=C\CN(C(=O)c3ccc(C)cc3)[C@@H](C)C(=O)N2Cc2ccc(F)cc2)cc1 | -6.98%
48 | CC(NC(=O)COC(=O)c1cc([N+](=O)[O-])ccc1N1CCOCC1)c1ccc(F)cc1 (centres unmarked) | -12.9%
49 | O=C(c1ccccc1)c1nc2ccccc2[nH]c1=O | -6.62%
50 | CCOC(=O)c1sc2nc(CSc3ccccc3Cl)[nH]c(=O)c2c1C | 11.5%
51 | O=C(NCCC(=O)N1CCN(S(=O)(=O)c2ccccc2Cl)CC1)Nc1ccccc1 | 8.4%
52 | CCn1cc(CNC(=O)c2ccc3nc(Cc4ccc(OC)cc4)oc3c2)cn1 | 16.4%
53 | Nc1c(C(=O)N2CCOCC2)sc2nc(N3CCOCC3)c3c(c12)CCCC3 | 13.4%
54 | Cc1noc2ncnc(N3CCCCC3)c12 | 11.1%
55 | O=C(CN1CCN(C(=O)c2ccco2)CC1)Nc1ccc2c(c1)OCCO2 | 5.79%
56 | OCC[n+]1c2ccccc2nc2ccc(N3CCOCC3)cc21.[O-][Cl+3]([O-])([O-])[O-] | 1.91%
57 | Cc1ccc(C(=O)NCCC(=O)Nc2ccccc2C)cc1 | 16.4%
58 | CC1(C)C2CCC(C2)C1(C)NC(=O)CNCC1CCCCC1.Cl (centres unmarked) | 13.8%
59 | CC[n+]1c(/C=C2/C=C(C)CC(C)(C)C2)sc2ccc(OC)cc21.Cc1ccc(S(=O)(=O)[O-])cc1 | -26%
60 | O=C(OCc1nnc(-c2ccccc2)o1)c1cn(-c2ccccc2)nc1-c1ccccc1 | -1.95%
61 | Cc1cccc(OCc2nc3ccccc3n2C)c1.Cl | 13.3%
62 | Cc1ccc(OC[C@H](O)[C@H](C)NC(C)C)c2c1CCC2.Cl | 6.2%
63 | O=S1(=O)CCO[C@H]2Cc3ccccc3[C@H]2N1Cc1ccccc1 | 10.6%
64 | COc1ccc(N2CCN(C(=O)Cc3nn(C)c(=O)c4ccccc34)CC2)cc1 | 4.97%
65 | COc1cc(CN2CCN(C(C)C)C(CCO)C2)ccc1OCc1ccccc1 (centres unmarked) | -0.108%
66 | O=C(O)C(Cc1c[nH]c2ccccc12)N1C(=O)c2ccccc2C1=O (centres unmarked) | 3.32%
67 | Cc1ccsc1/C=N/NC(=O)C(N)=O | 7.05%
68 | Cc1ccccc1-n1c(-c2ccc(=O)[nH]n2)n[nH]c1=S | 16.8%
69 | CCOC(=O)NN1C(=O)c2ccccc2NC12CCCC2 | -3.87%

Row | Structure (SMILES) | hERG current change (%, negative = inhibition) at 1uM
70 | CCOc1cc(Br)c(C=O)cc1OCC | 8.63%
71 | Cc1cc(=O)[nH]c(-n2nc(C)c(Oc3ccccc3O)c2C)n1 | 5.83%
72 | CCn1ncc(Br)c1C(=O)Nc1ccc(C(=O)OC(C)C)cc1 | 21.6%
73 | COc1ccc(NC2=CC(=O)CC(c3ccccc3)C2)cc1 (centres unmarked) | 10.1%
74 | Cn1cnc2cc(OC(=O)c3ccccc3)ccc21 | -0.978%
75 | CS(=O)(=O)N1N=C(c2cccs2)CC1c1ccc(F)cc1 (centres unmarked) | 8.67%
76 | Cc1ccccc1C1C(C#N)=C2N=C(N)c3ccccc3N2C2=C1C(=O)CCC2 (centres unmarked) | 7%
77 | CCCCOC(=O)c1ccc(Nc2ccc([N+](=O)[O-])cn2)cc1 | 13.1%
78 | O=c1c2ccccc2nc2n1C(CSc1ccc(F)cc1)CS2 (centres unmarked) | 2.13%
79 | CCOC(=O)c1ccc(NC(=O)N2C3CCCC2CC(NC(C)=O)C3)cc1 (centres unmarked) | 11.9%
80 | COc1ccc(OC)c(CCNC(=O)CS(=O)(=O)Cc2nc(-c3ccc(C)cc3)oc2C)c1 | -11.3%
81 | N#Cc1cc(N)c(Nc2ccccc2)cc1C#N | 7.02%
82 | O=C(CCCCCBr)N1CCC(CC2CC(c3cccc(Br)c3)=NO2)(C(=O)NCC2CCCCC2)CC1 (centres unmarked) | -31.9%
83 | COC(=O)/C=c1/s/c(=C(\C#N)C(=O)NCc2ccco2)n(-c2ccccc2)c1=O | 14.8%
84 | CCCCCCc1c(C)c2ccc(OCC(=O)N3CCC[C@H]3C(=O)O)c(C)c2oc1=O | 7.42%
85 | CCc1nnc(NC(=O)CSc2nnc(C3CCCCC3)n2-c2ccccc2)s1 | 6.16%
86 | O=C1C=C(c2cc(Cl)cc(Cl)c2)C[C@@H](c2ccc3c(c2)OCO3)C1 | 26.4%
87 | Cc1nc(SCC(=O)N2CCN(c3ccccc3)CC2)n[nH]1 | 7.64%
88 | COc1ccc(CCN2C(=O)c3cccc4c(C(=O)N5CCCCC5)ccc(c34)C2=O)cc1OC | 12%
89 | CC1CCN(S(=O)(=O)N2CCC(C(=O)NCCC3=CCCCC3)CC2)CC1 | 11.6%
